# The list shows a part of the results.
# Legend:
# Test in all cases: glycan array binding signal (z-score within array); higher = stronger binding
# Settings in all cases: glycan notation: IUPAC condensed, linker removed
# [1] = target: Gal(b1-4)GlcNAc(b1-3)Gal(b1-4)GlcNAc(b1-6)[Gal(b1-3)]GalNAc
# In short: (§1)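 Glycan array data came from 3228 arrays in the Consortium for Functional Glycomics database, and only arrays with an available protein sequence were kept. Glycan names were put into IUPAC-condensed notation, and columns mapping to the same glycan were averaged. The binding signal is a within-array Z-score, averaged across arrays of one protein sequence run at different concentrations or buffers and across linkers. A negative Z-score can be read as non-binding.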
# [2] = target: Gal(b1-4)GlcNAc(b1-3)Gal(b1-4)[Fuc(a1-3)]GlcNAc(b1-3)Gal(b1-4)[Fuc(a1-3)]GlcNAc
# In short: as §1
# [3] = target: Gal(b1-4)GlcNAc(b1-3)GalNAc
# In short: as §1
# [4] = target: Gal(b1-4)GlcNAc(b1-3)[Fuc(a1-3)GlcNAc(b1-6)]Gal(b1-4)Glc
# In short: as §1
# [5] = target: Gal(b1-4)GlcNAc(b1-3)[Gal(b1-4)GlcNAc(b1-6)]Gal(b1-4)GlcNAc
# In short: as §1
# [6] = target: Gal(b1-4)GlcNAc(b1-3)[GlcNAc(b1-6)]Gal(b1-4)GlcNAc
# In short: as §1
# [7] = target: Gal(b1-4)GlcNAc(b1-6)Gal(b1-4)GlcNAc
# In short: as §1
# [8] = target: Gal(b1-4)GlcNAc(b1-6)GalNAc
# In short: as §1
# [9] = target: Gal(b1-4)GlcNAc(b1-6)[Gal(b1-3)]GalNAc
# In short: as §1
# [10] = target: Gal(b1-4)GlcNAc(b1-6)[Gal(b1-4)GlcNAc(b1-3)]GalNAc
# In short: as §1
# Gal(b1-4)GlcNAc6P = target: Gal(b1-4)GlcNAc6P
# In short: as §1
# Gal(b1-6)Gal = target: Gal(b1-6)Gal
# In short: as §1
# Gal3S(b1-3)GalNAc = target: Gal3S(b1-3)GalNAc
# In short: as §1
# Gal3S(b1-3)GlcNAc = target: Gal3S(b1-3)GlcNAc
# In short: as §1
# [11] = target: Gal3S(b1-3)[Fuc(a1-4)]GlcNAc
# In short: as §1
# Gal3S(b1-4)Glc = target: Gal3S(b1-4)Glc
# In short: as §1
# Gal3S(b1-4)Glc6S = target: Gal3S(b1-4)Glc6S
# In short: as §1
# Gal3S(b1-4)GlcNAc = target: Gal3S(b1-4)GlcNAc
# In short: as §1
# [12] = target: Gal3S(b1-4)[Fuc(a1-3)]Glc6S
# In short: as §1
# [13] = target: Gal3S(b1-4)[Fuc(a1-3)]GlcNAc
# In short: as §1
# [14] = target: Gal3S(b1-4)[Fuc(a1-3)]GlcNAc6S
# In short: as §1
# Gal3S4S(b1-4)GlcNAc = target: Gal3S4S(b1-4)GlcNAc
# In short: as §1
# Gal3S6S(b1-4)GlcNAc = target: Gal3S6S(b1-4)GlcNAc
# In short: as §1
# Gal3S6S(b1-4)GlcNAc6S = target: Gal3S6S(b1-4)GlcNAc6S
# In short: as §1
# Gal4S(b1-4)GlcNAc = target: Gal4S(b1-4)GlcNAc
# In short: as §1
# Gal4S6S(b1-4)GlcNAc = target: Gal4S6S(b1-4)GlcNAc
# In short: as §1
# Gal6P(b1-4)GlcNAc = target: Gal6P(b1-4)GlcNAc
# In short: as §1
# Gal6S(b1-3)GlcNAc = target: Gal6S(b1-3)GlcNAc
# In short: as §1
# Gal6S(b1-3)GlcNAc6S = target: Gal6S(b1-3)GlcNAc6S
# In short: as §1
# Gal6S(b1-4)Glc = target: Gal6S(b1-4)Glc
# In short: as §1
# Gal6S(b1-4)Glc6S = target: Gal6S(b1-4)Glc6S
# In short: as §1
# Gal6S(b1-4)GlcNAc = target: Gal6S(b1-4)GlcNAc
# In short: as §1
# Gal6S(b1-4)GlcNAc6S = target: Gal6S(b1-4)GlcNAc6S
# In short: as §1
# GalNAc(a1-3)Gal = target: GalNAc(a1-3)Gal
# In short: as §1
# GalNAc(a1-3)GalNAc = target: GalNAc(a1-3)GalNAc
# In short: as §1
# [15] = target: GalNAc(a1-3)GalNAc(b1-3)Gal(a1-4)Gal(b1-4)Glc
# In short: as §1
# [16] = target: GalNAc(a1-3)GalNAc(b1-3)Gal(a1-4)Gal(b1-4)GlcNAc
# In short: as §1
# GalNAc(b1-3)Gal = target: GalNAc(b1-3)Gal
# In short: as §1
# [17] = target: GalNAc(b1-3)Gal(a1-4)Gal(b1-4)GlcNAc
# In short: as §1
# [18] = target: GalNAc(b1-3)Gal(a1-4)Gal(b1-4)GlcNAc(b1-3)Gal(b1-4)Glc
# In short: as §1
# [19] = target: GalNAc(b1-3)Gal(a1-6)Gal(b1-4)Glc
# In short: as §1
# GalNAc(b1-3)GalNAc = target: GalNAc(b1-3)GalNAc
# In short: as §1
# GalNAc(b1-3)GlcNAc = target: GalNAc(b1-3)GlcNAc
# In short: as §1
# GalNAc(b1-4)Gal(b1-4)Glc = target: GalNAc(b1-4)Gal(b1-4)Glc
# In short: as §1
# GalNAc(b1-4)GlcNAc = target: GalNAc(b1-4)GlcNAc
# In short: as §1
binder,measurement,setting,value
GNL (Galanthus nivalis) (protein) MGHHHHHHHHYGTLENGHWLMVGMSIFSKDRTVELRMQDDGKLAIYYNDHCAWQSTAQQVNNAKGAVMQGDGNFCIYDKNGKATWHTNTAAPSGDSHTFVSVQDDGNLVLYKNNGATPIWSSKSNK,glycan array binding signal (z-score),[1],-0.128
same,glycan array binding signal (z-score),[2],-0.223
same,glycan array binding signal (z-score),[3],-0.205
same,glycan array binding signal (z-score),[4],-0.203
same,glycan array binding signal (z-score),[5],-0.254
same,glycan array binding signal (z-score),[6],-0.313
same,glycan array binding signal (z-score),[7],-0.222
same,glycan array binding signal (z-score),[8],-0.158
same,glycan array binding signal (z-score),[9],-0.166
same,glycan array binding signal (z-score),[10],-0.12
same,glycan array binding signal (z-score),Gal(b1-4)GlcNAc6P,-0.248
same,glycan array binding signal (z-score),Gal(b1-6)Gal,-0.148
same,glycan array binding signal (z-score),Gal3S(b1-3)GalNAc,-0.242
same,glycan array binding signal (z-score),Gal3S(b1-3)GlcNAc,-0.195
same,glycan array binding signal (z-score),[11],-0.15
same,glycan array binding signal (z-score),Gal3S(b1-4)Glc,-0.164
same,glycan array binding signal (z-score),Gal3S(b1-4)Glc6S,-0.206
same,glycan array binding signal (z-score),Gal3S(b1-4)GlcNAc,-0.175
same,glycan array binding signal (z-score),[12],0.021
same,glycan array binding signal (z-score),[13],-0.241
same,glycan array binding signal (z-score),[14],-0.23
same,glycan array binding signal (z-score),Gal3S4S(b1-4)GlcNAc,-0.212
same,glycan array binding signal (z-score),Gal3S6S(b1-4)GlcNAc,-0.033
same,glycan array binding signal (z-score),Gal3S6S(b1-4)GlcNAc6S,-0.07
same,glycan array binding signal (z-score),Gal4S(b1-4)GlcNAc,-0.212
same,glycan array binding signal (z-score),Gal4S6S(b1-4)GlcNAc,-0.223
same,glycan array binding signal (z-score),Gal6P(b1-4)GlcNAc,-0.253
same,glycan array binding signal (z-score),Gal6S(b1-3)GlcNAc,-0.225
same,glycan array binding signal (z-score),Gal6S(b1-3)GlcNAc6S,0.245
same,glycan array binding signal (z-score),Gal6S(b1-4)Glc,-0.224
same,glycan array binding signal (z-score),Gal6S(b1-4)Glc6S,-0.207
same,glycan array binding signal (z-score),Gal6S(b1-4)GlcNAc,-0.17
same,glycan array binding signal (z-score),Gal6S(b1-4)GlcNAc6S,-0.299
same,glycan array binding signal (z-score),GalNAc(a1-3)Gal,-0.25
same,glycan array binding signal (z-score),GalNAc(a1-3)GalNAc,-0.27
same,glycan array binding signal (z-score),[15],-0.305
same,glycan array binding signal (z-score),[16],-0.239
same,glycan array binding signal (z-score),GalNAc(b1-3)Gal,-0.219
same,glycan array binding signal (z-score),[17],0.601
same,glycan array binding signal (z-score),[18],-0.236
same,glycan array binding signal (z-score),[19],-0.173
same,glycan array binding signal (z-score),GalNAc(b1-3)GalNAc,-0.209
same,glycan array binding signal (z-score),GalNAc(b1-3)GlcNAc,-0.204
same,glycan array binding signal (z-score),GalNAc(b1-4)Gal(b1-4)Glc,-0.228
same,glycan array binding signal (z-score),GalNAc(b1-4)GlcNAc,-0.084
